Values joined by “and” are separate entries in the source; they are usually repeats but may differ in a detail not shown here. Identical values can stand only once. The inconclusive results got no clear call from the source; some entries with a clear call stand among them for comparison. Where the call is inconclusive, the potency comes from a doubtful curve fit. Active and inactive are the calls of the source. Unless noted, calls come from the whole dose curve; as a rule, active = well fitted inhibition curve with a large enough effect; inconclusive = small, poorly fitted or top-dose-only effect; inactive = no such curve, though single readings can be large or run the other way.
Legend:
[1] = target: Aldehyde dehydrogenase, mitochondrial (Homo sapiens) (UniProt P05091); assay: qHTS for Inhibitors of the Aldehyde Dehydrogenase Family (ALDH2) Confirmatory screens (AID 2061303; active = well fitted inhibition curve with a large enough effect; inconclusive = small, poorly fitted or top-dose-only effect; inactive = no such curve, though single readings can be large or run the other way; title and protocol of this record describe different tests; note: nearly all actives have a fitted effect of over 45% in size); details: ALDH inhibition qHTS; activity change, negative = inhibition: at 45.4 µM (top of the series)
[2] = qHTS for Inhibitors of the Aldehyde Dehydrogenase Family (ALDH1A2, ALDH1A3, ALDH2, ALDH3A1) (AID 2061307); details: ALDH inhibition qHTS; activity change, negative = inhibition: at 50.3 µM (top of the series) unless noted; note: nearly all actives have a fitted effect of over 50% in size; for potency: test system not described further here
[3] = target: Retinaldehyde dehydrogenase 3 (Homo sapiens) (UniProt P47895); assay: qHTS for Inhibitors of the Aldehyde Dehydrogenase Family (ALDH1A3) Confirmatory screens (AID 2061311); details: activity change, negative = inhibition: at 46 µM (top of the series); note: nearly all actives have a fitted effect of over 60% in size
[4] = target: Retinal dehydrogenase 2 (Homo sapiens) (UniProt O94788); assay: qHTS for Inhibitors of the Aldehyde Dehydrogenase Family (ALDH1A2) Confirmation screens (AID 2061314); details: activity, negative = inhibition: at 45.9 µM (top of the series) unless noted; note: nearly all actives have a fitted effect of over 65% in size
[5] = target: Retinaldehyde dehydrogenase 3 (Homo sapiens) (UniProt P47895); assay: qHTS for Inhibitors of the Aldehyde Dehydrogenase Family (ALDH1A3) Primary screen (AID 2061315); details: ALDH inhibition qHTS; activity change, negative = inhibition: at 56 µM (top of the series) unless noted
[6] = target: Aldehyde dehydrogenase 1A1 (Homo sapiens) (UniProt P00352); assay: qHTS for Inhibitors of the Aldehyde Dehydrogenase Family (ALDH1A1) Confirmatory screens (AID 2061316); details: activity change, negative = inhibition: at 47.3 µM (top of the series); note: nearly all actives have a fitted effect of over 65% in size
Potency is the fitted concentration of half-maximal effect; tags give direction and shape of the fitted curve.

| Structure (SMILES) | Potency [1] | Potency [2] | Potency [3] | Potency [4] | Potency [5] | Potency [6] |
| --- | --- | --- | --- | --- | --- | --- |
| Cc1ccc(NC(=O)N2CCN(c3ccc(Cl)c(Cl)c3)CC2)cc1 | inactive | inconclusive: 7.08 µM [inhibitor, full curve, poor fit] | inactive | inactive |  |  |
| CNc1oc(-c2cccc(-c3ccccc3)c2)nc1C#N | active: 15.8 µM | active: 17.8 µM | active: 25.1 µM | inconclusive: 7.98 µM [inhibitor, full curve] |  |  |
| CC(=O)N1CCc2cc(-c3nc(NC(=O)Cc4ccc5c(c4)OCO5)sc3C)ccc21 | inconclusive: 22.5 µM [inhibitor, partial curve, poor fit] | active: 2.01 µM | inconclusive: 10 µM [inhibitor, full curve] | inconclusive: 10.1 µM [inhibitor, partial curve] |  |  |
| CC[C@@H](Nc1c(Nc2cccc(C(=O)N(C)C)c2O)c(=O)c1=O)c1cc(C(C)C)co1 | inconclusive: 17.8 µM [inhibitor, partial curve, poor fit] | active: 5.62 µM and active: 7.08 µM | inconclusive: 5.04 µM [inhibitor, full curve] | inactive | inconclusive: 2.82 µM [inhibitor, full curve] |  |
| COc1ccc(CC2C(=O)NC(C)C(=O)N(C)C3Cc4ccc(cc4)Oc4cc(ccc4OC4OC(CO)C(O)C(O)C4O)CC(C(=O)NC(C)C(=O)NC(C)C(=O)N2C)N(C)C3=O)cc1 (centres undefined) | inconclusive: 2.4 µM [inhibitor, partial curve] | inconclusive: 4.26 µM [inhibitor, partial curve] | active: 4.78 µM | inconclusive: 3.8 µM [inhibitor, partial curve] | inconclusive: 7.94 µM [inhibitor, single point] | inconclusive: 4.26 µM [inhibitor, partial curve] |
| c1cc2c(cc1CNc1ccc(N3CCOCC3)cc1)OCO2 | inconclusive: 7.12 µM [inhibitor, full curve, poor fit] | active: 11.3 µM | active: 6.34 µM | inconclusive: 11.3 µM [inhibitor, partial curve, poor fit] | inconclusive: 4.47 µM [inhibitor, full curve, poor fit] | inconclusive: 12.7 µM [inhibitor, partial curve] |
| CN(C)CCCCCCNC(=O)c1cccc(-c2cc(O)c3ncccc3c2)c1 | inconclusive: 5.65 µM [inhibitor, partial curve] | inconclusive: 0.0355 µM [inhibitor, full curve, poor fit] | active: 8.96 µM | inactive | inconclusive: 20 µM [inhibitor, single point] | inconclusive: 12.7 µM [inhibitor, partial curve] |
| Nc1ccccc1S(=O)(=O)Nc1cccc2cccnc12 | inconclusive: 3.55 µM [inhibitor, full curve, poor fit] | inconclusive: 7.98 µM [inhibitor, partial curve] | inconclusive: 5.01 µM [inhibitor, full curve, poor fit] | inconclusive: 4.49 µM [inhibitor, full curve] | inconclusive: 17.8 µM [inhibitor, single point] | inactive |
| COc1cccc(C2c3c(ncn(-c4ccccc4)c3=N)Oc3ccc4ccccc4c32)c1 (centres undefined) | inconclusive: 14.2 µM [inhibitor, partial curve, poor fit] | inactive | active: 11.3 µM | active: 12.7 µM | inconclusive: 22.4 µM [inhibitor, partial curve, poor fit] | inconclusive: 11.3 µM [inhibitor, partial curve] |
| O=C(/C=C/c1ccc(O)c(O)c1)OCc1ccccc1O[C@@H]1O[C@H](CO)[C@@H](O)[C@H](O)[C@H]1O | inconclusive: 12.3 µM [inhibitor, partial curve] | inconclusive: 6.18 µM [inhibitor, partial curve] | inconclusive: 6.18 µM [inhibitor, partial curve] | inconclusive: 5.51 µM [inhibitor, partial curve] | inconclusive: 5.01 µM [inhibitor, partial curve] | inconclusive: 11 µM [inhibitor, partial curve] |
| COc1ccc(C2COc3cc(O)ccc3C2)c(O)c1OC (centres undefined) | inconclusive: 3.16 µM [inhibitor, full curve] | inconclusive: 7.98 µM [inhibitor, partial curve] | inconclusive: 0.199 µM [inhibitor, full curve, poor fit] | inconclusive: 8.96 µM [inhibitor, partial curve] | inconclusive: 17.8 µM [inhibitor, partial curve] | inconclusive: 11.3 µM [inhibitor, partial curve] |
| CCN1CCN(c2ccc(Nc3ccc(-c4ccc(C(N)=O)cc4)n4ncnc34)cc2)CC1 | inactive | inactive | inconclusive: 22.5 µM [inhibitor, partial curve] | inconclusive: 25.2 µM [inhibitor, partial curve] | inconclusive: 1 µM [inhibitor, full curve, poor fit] | inconclusive: 22.5 µM [inhibitor, partial curve] |
| Oc1ccc(COCc2ccc(F)cc2)c2cccnc12 | inconclusive: 8.96 µM [inhibitor, partial curve, poor fit] | inconclusive: 5.65 µM [inhibitor, partial curve] | active: 10.1 µM | inconclusive: 31.8 µM [inhibitor, single point] | inconclusive: 20 µM [inhibitor, single point] | inconclusive: 12.7 µM [inhibitor, partial curve] |
| COC(=O)C1=CO[C@@H](O[C@@H]2O[C@H](COC(=O)/C=C/c3cc(OC)c(O)c(OC)c3)[C@@H](O)[C@H](O)[C@H]2O)[C@@H]2C(CO)=CC[C@H]12 | inconclusive: 9.43 µM [inhibitor, partial curve, poor fit] | inactive | inconclusive: 9.43 µM [inhibitor, single point] | inconclusive: 10.6 µM [inhibitor, partial curve, poor fit] | inconclusive: 2.51 µM [inhibitor, partial curve] | inconclusive: 11.9 µM [inhibitor, partial curve, poor fit] |
| NC(=O)C1CCN(c2ncc(-c3ccc4c(c3)OCCO4)s2)CC1 | active: 0.896 µM | active: 7.12 µM | active: 7.98 µM | active: 8.96 µM | inconclusive: 28.2 µM [inhibitor, single point] | active: 0.712 µM |
| CC1(C)N=C(Nc2nc3ccccc3o2)NC2=C1C(=O)CCC2 | inconclusive: 10.1 µM [inhibitor, partial curve, poor fit] | inconclusive: 11.3 µM [inhibitor, partial curve] | inactive | inconclusive: 14.2 µM [inhibitor, partial curve] | inactive | inconclusive: 20.1 µM [inhibitor, partial curve] |
| COc1ccc(C2COc3cc(O)ccc3C2)c(O)c1 (centres undefined) | inconclusive: 10.1 µM [inhibitor, partial curve, poor fit] | inconclusive: 15.9 µM [inhibitor, partial curve, poor fit] | active: 17.9 µM | inconclusive: 20.1 µM [inhibitor, partial curve] | active: 25.1 µM | inconclusive: 12.7 µM [inhibitor, partial curve] |
| Oc1ccc(COc2cccc3ccccc23)c2cccnc12 | inconclusive: 4 µM [inhibitor, full curve, poor fit] | inactive | active: 10.1 µM | inconclusive: 5.04 µM [inhibitor, full curve] | inconclusive: 20 µM [inhibitor, single point] | inconclusive: 7.12 µM [inhibitor, partial curve] |
| OC[C@H]1O[C@@H](Oc2cc(O)cc(-c3cc4ccc(O)cc4o3)c2)[C@H](O)[C@@H](O)[C@@H]1O | inconclusive: 6.18 µM [inhibitor, partial curve] | inconclusive: 3.9 µM [inhibitor, partial curve, poor fit] | active: 12.3 µM | inconclusive: 12.3 µM [inhibitor, single point] | inconclusive: 7.08 µM [inhibitor, partial curve] | inconclusive: 12.3 µM [inhibitor, partial curve] |
| CCOC(=O)C1CCN(c2ncc(-c3ccc4c(c3)OCCCO4)s2)CC1 | inconclusive: 15.8 µM [inhibitor, partial curve, poor fit] | active: 5.65 µM | active: 10.1 µM | active: 4 µM | inconclusive: 25.1 µM [inhibitor, partial curve] | inconclusive: 12.7 µM [inhibitor, partial curve] |
| CC(=O)c1ccc(N2CCN(S(=O)(=O)c3ccc4c(c3)n(C)c(=O)n4C)CC2)cc1 | active: 0.316 µM | inconclusive: 1 µM [inhibitor, full curve, poor fit] | active: 2.01 µM | inconclusive: 31.6 µM [inhibitor, partial curve] | inconclusive: 0.631 µM [inhibitor, full curve] | inactive |
